The RNAGym collection of RNA variant scans (doi:10.7554/elife.90254)
The source gives no read counts; variants with many changes may rest on few reads.

B1: LINE1-full (parent)
chain: UACGUAGGUGGUUUUCCCCUGAUAGUGCUAAGGGGGCCUGGAAGUUUGGACUGGGCAGAGCUCAACACAGCGUGGCAAAGUGGCUGUGGCUAGACUGCCUCUCUGGAUUCCUCGUCACUCAGCAGGGCAUCUCUGAGAGAAAUGCC

Variants of: B1
Experiment: self-cleavage, relative activity (ratio to wild type); higher = more cleavage; in vitro, sequencing; the parent is a self-cleaving ribozyme

| Variant | self-cleavage |
| --- | --- |
| G35U A50G C95U U119C A121U | 0.14 |
| U115C C131U A136G | 1.99 |
| U9A U47A A121G | 0.92 |
| C63U U130C U132C | 0.27 |
| C71U U100C U102C | 1.18 |
| U47A U62C A64U U100C | 0.04 |
| G25A U73A U87C | 0.07 |
| C3U U20G U112C | 0.79 |
| U39C A79G U119A U134C A138G | 1.72 |
| U14C A42G U102C | 0 |
| A57U A59G U115C | 0.15 |
| A31G G126U U130C | 1.75 |
| U39A U47C U62A U96A | 0.07 |
| A79G U119C A138G | 0 |
| U13A A64U U132C | 0.3 |
| A2G U52A A65G U102A G135U | 0.27 |
| U5C U9A A69G U87C A140G | 0 |
| A22G U73A U115C A117U G126A | 2.01 |
| U115A A136G A142G | 1.27 |
| U13C A24C A43G U102C C131A A140G U143C | 0.84 |
| G72A U102C C128U | 1.03 |
| A2C G33U U109A A140G | 1.05 |
| U20C G41A U47C G114A U115A | 1.63 |
| U29A A31U U47C A64G | 0 |

| Variant | self-cleavage |
| --- | --- |
| U29C G32A U52A | 0.92 |
| A22U A42G U115C G122A | 1.7 |
| G32A A69G C110A | 0.05 |
| A2G U14A A57U A79G U91C A136U | 0 |
| U52A C71A U104C | 1.38 |
| G114A A129U U134C | 0.83 |
| U15C A30G U108C | 0.54 |
| U15C U47C G74U | 1.15 |
| A2G U5C A30U A141G | 0.55 |
| U112C U134A A141U | 1 |
| U13G G74A U81C | 0.88 |
| U26A A117G A136G | 1.06 |
| U47C U73C U96A U134A | 0.07 |
| A64G U73C A136G | 0.16 |
| C84U A129G A138G | 0 |
| A22G U87A A94G U104C | 0 |
| A69G G97A G139A | 0.02 |
| U12G A69G A136U | 1.31 |
| U23C G33A A43G U81A | 1.16 |
| U14C U81C U96A | 0.17 |
| G72U U85A C90U U115C A121U | 0.06 |
| U23C U26A A69G A129U A138G U143A | 0.57 |
| U85A U108C C123A | 0.04 |
| U47C G70U A138G | 0.03 |

| Variant | self-cleavage |
| --- | --- |
| C16U U62C U85A | 0.02 |
| A42G U62A C128G | 0.02 |
| U15C A117G A136G | 1.55 |
| U20C U39A A59G A124G | 0.16 |
| U45C C66U U143C | 0.08 |
| A2G G53A C120U | 1.97 |
| U20C A78U A107G | 1.46 |
| A65G A69G A136U | 0 |
| U13C A43G A57G | 0.48 |
| U20C G27U A69U U130A | 0.07 |
| A2G A129U A142G U143C | 0.97 |
| U9A U73A U104A A140U | 0.91 |
| U14C A24G A138G | 1 |
| A42U U102C U119C G122A A136G A140G | 0.58 |
| U13C U26C U47C A50G A64U | 0.4 |
| A50G A78G U87C | 0.14 |
| U29C U85C U100C | 0 |
| G106A A141G A142G | 1.54 |
| A6U A22G U119A | 0.93 |
| A77G U104A A107U | 1.15 |
| U20C A124G A138G | 0 |
| A31U C56U A77G A138U | 0.62 |
| A43U A79C A94G A117G G127A | 0 |
| A69G U87G G122A | 0.1 |

| Variant | self-cleavage |
| --- | --- |
| G36A U62C U81A U102A | 0.02 |
| U12G U81A U115G U132C | 1.99 |
| U62C A67G U87A A136G U143A | 0.14 |
| A22C U112C A140G | 1.57 |
| U9C A77G A92U U134C | 0.61 |
| G41U U119C U134C | 1.72 |
| C3A U23A U85C | 0.47 |
| A77G A78G A129C | 1.53 |
| U39C U52A A64G U109C C123U | 0.17 |
| U14C U20A A24G U81C U96C | 0 |
| U12C A42U A64G | 0.35 |
| U13C C19U U46A G80A A142G | 1.66 |
| C18A A43G C101U | 0.54 |
| U23C U26C U62C A69C C76A U100C A140G | 0 |
| U62C A65U U119C U134C | 0.06 |
| U9A U12C A69U U96C A136U | 0.11 |
| A64G U81C U87A | 0.08 |
| A31U G34A A57U A77U A79G A124G A141G | 0.02 |
| A31G A64G U108A | 0.92 |
| U1A U5A U62G A67G C71U A77U U100A U112G | 0 |
| U73A U81C A124U C145U | 2.08 |
| U45C U52G U132C | 2.01 |
| A2G C37G A117G A138G | 1.39 |
| U29A U96C A142G | 0.03 |

| Variant | self-cleavage |
| --- | --- |
| U14A G32A U132C | 1 |
| U13A A43G U62A | 0.08 |
| U12A U62A A65U G83A | 0.05 |
| A59U A107U A129U | 0.82 |
| C19U U62A A94G U115A | 0.14 |
| U1C U39A U73C | 1.64 |
| A117U C118U A140G | 1.11 |
| U52C G80A U96A A117U A124G A136G | 0 |
| U62C C90U U108C A136G U143C | 0 |
| U9C U15C G33U A94G | 1.08 |
| A6U G33C U62C A124G | 0.2 |
| A22G A94U A141G | 0.18 |
| U12C U46C U109C A141G | 1.8 |
| C76U A94G A117G A136G | 0.54 |
| U26C G40A U96A | 0.04 |
| G53U A57U C110A U112A U132C | 0.06 |
| A65G A69G A140G | 0 |
| U12G U14C A79C U100C | 2.63 |
| A2G U9G U62C U100C U112A U134C | 0 |
| U5C A77U U87C A124U | 0.17 |
| U14G A22G U52A | 0.97 |
| U39C U108C A129C | 2.21 |
| U13C A31C U52A G86U U102C A136G A140G | 0.13 |
| U46C G60A A64G | 0.55 |

| Variant | self-cleavage |
| --- | --- |
| U26C U47G U62C | 0.27 |
| U9A U20A A22G G34A A57G G86A | 0.13 |
| A69U A92G C116U | 0.04 |
| A50G U102A A121G | 0.98 |
| A31C A79G G80U U96C | 0 |
| A30C U45G A141G | 0.66 |
| A43U A67U A94G A129G | 0.19 |
| U12C G35A A77G | 1.97 |
| U1A A31G G54U A65G A121G | 0.43 |
| U12C A57U C146A | 0.17 |
| A43G A50G A78G | 0.12 |
| A6U U47A A92G G114A | 0.14 |
| A65U U115C U119C | 0.41 |
| A22G U46C U112C | 2.04 |
| U14A U20C A92G | 0.06 |
| U45C A64G U134A | 0.53 |
| A50G A59G A136G | 0.16 |
| U14C A78G U87A A136U | 0.12 |
| U5C U13A A69C A140G | 0.08 |
| A64G A79G G106A U134C U143C | 0.68 |
| A22G G32C U115C | 1.15 |
| A6U A121U A142G | 0.51 |
| A2G U46A A64G A107G A141G | 0.19 |
| U39A U85C G88U U132C | 0.06 |

| Variant | self-cleavage |
| --- | --- |
| U9C C19U U52C U119A A121G | 1.31 |
| G7U U46C G82U U143A | 1.25 |
| A22U A64U U87C U96C U132C | 0 |
| A30G U62C A69G A129G | 0 |
| U13C U46C C56G A140G A142U | 0.1 |
| A31G A65G A78U A121U | 0 |
| U20C G60U U73A U85C U115C A142G | 0 |
| C99U U108C A129G | 0.75 |
| G8U U39C A124G A141G | 1.84 |
| G40A A64G A69U A140G | 0 |
| U85A A136G A138G | 0.2 |
| U26C A30G U143C | 1.31 |
| A24G U39C U46A U52A U62C A78G | 0.12 |
| U15A U81A G135U | 1.17 |
| U14C A31C U39C G72A | 1.68 |
| G10A A42G U47C | 1.19 |
| A43U U104A U134C | 1.93 |
| A6U U23C G33U A94U | 0.3 |
| U12C U14C G27A A64G U85C A124U A142G | 0 |
| U39A U62A A69G | 0.06 |
| U12C G33U G36U U73C | 0.63 |
| U15C A124G A141G | 1.89 |
| C56U U91C U104C | 0.02 |
